Experimental data taken from PubChem BioAssay AID652104 (National Center for Advancing Translational Sciences (NCATS), 2013).
Where “and” joins values, the source holds several entries; their conditions need not be identical. Equal values may be shown once. The whole screen tested about 410,000 compounds, of which about 7,200 (1.8%) were called active. The shares of active, inactive and inconclusive entries below differ from those in the screen. The call rests on the fitted dose curve; in most records, active means well fitted activation curve with a large enough effect; inconclusive means small, poorly fitted or top-dose-only effect, or another doubt; inactive means no such curve, though single readings can be large or run the other way. A potency beside an inconclusive call is a rough fit, not a confirmed value.

Assay: qHTS of TDP-43 Inhibitors; further: nearly all actives have a fitted effect of over 50% in size; on growth rescue (activation): % of control where 0% means no effect
Conditions: TDP-43 expressing yeast growth rescue, BacTiter-Glo, 24 h; growth rescue (activation): at 46.1 µM (top of the series)
Source text: The goal of this project is to identify new chemical probes capable of reversing the toxicity associated with TDP-43 which is associated with frontotemporal lobar degeneration and amyotrophic lateral sclerosis. These compounds will provide a complementary approach to deciphering the tangled mechanisms of toxicity and protection that we have uncovered through genome-wide genetic screens and are beginning to uncover in a large-scale proteomics analysis with mass spectroscopy.
To this end, a miniaturized assay was developed to be screened against the Molecular Libraries Small Molecule Repository (MLSMR) to discover TDP-43 inhibitors. Please note that in the set-up this yeast-based assay compounds that inhibit as TDP-43, have a read-out as activators.
NIH Chemical Genomics Center [NCGC]
NIH Molecular Libraries Probe Centers Network [MLPCN]
Assay Submitter (PI): Susan Lindquist, Whitehead Institute/MIT
Dispense 2.5 microL yeast galactose medium per 1536-well plate, pin compound, dispense 2.5 microL TDP-43 expressing yeast in galactose medium at OD600=0.02 (pregrown in raffinose medium to mid-log phase) per well, incubate for 24 hr at 30 deg C, and cell growth will be measured using 5 microL of Bactiter/Glo reagent to entire plate and read using Luminescence Protocol in ViewLux.
Potency means the concentration at half of the fitted maximal effect; tags describe the fitted curve by direction and shape.

SMILES	Potency	growth rescue (activation)
C/C(=N\OC(=O)NC(C)C)c1sc(-c2ccccc2)nc1C	inconclusive: 10 µM [activator, partial curve]	–
CC1(C)C[C@H]2C=C(C=O)[C@]3(C=O)C[C@]3(C)[C@H]2C1	–	inconclusive: -93.6% [activator]
O=C1NCN(c2ccccc2)C12CCN(C(c1cccc3ccccc13)c1nnnn1Cc1ccccc1)CC2 (configuration not stated)	inactive	–
CCC1(CC(C)C)C(=O)NC(=S)NC1=O	inactive	–
CC1CCN(c2ccccc2NC(=O)c2cc3ccccc3o2)CC1	inconclusive: 3.55 µM [activator, single point]	–
CCOC(=O)[C@]12Cc3cc4ccccc4cc3[C@H]1N(Cc1ccccc1)C(=O)c1cc(OC)ccc12	inactive	–
CC1(C)C(C(=O)N2CCN(c3ccc(Cl)cc3)CC2)C1(C)C	inconclusive: 11.2 µM [activator, partial curve]	–
O=C(CN1C(=O)CN=C(c2ccccc2)c2ccccc21)Nc1cccc(C(F)(F)F)c1	active: 35.5 µM	–
COc1c(OP2(=S)OCC(C)(C)CO2)cnn(C2CCCCC2)c1=O	inconclusive: 35.5 µM [activator, single point]	–
COC(=O)C1=C(c2ccc(F)cc2OCc2ccccc2)C[C@@H]2CC[C@H]1N2C(=O)NCc1ccc(OC)c(OC)c1	inactive	–
COC(=O)C1=C(c2cccc(OCc3ccccc3)c2)C[C@@H]2CC[C@H]1N2C(=O)NCc1ccc2[nH]ccc2c1	inactive	–
COC(=O)C1=C(c2ccc(OC(F)(F)F)cc2)C[C@@H]2CC[C@H]1N2C(=O)NCCOc1ccccc1	inconclusive: 28.2 µM [activator, single point]	–
O=C1Nc2ccccc2Oc2ccccc21	inconclusive: 35.5 µM [activator, single point]	–
CCOC(=O)c1c(NC(=O)C(c2ccccc2)c2ccccc2)sc2c1C1CCN2CC1	inconclusive: 31.6 µM [activator, single point]	–
Cc1nc2cc([N+](=O)[O-])ccc2c(=O)n1-c1ccccc1[N+](=O)[O-]	active: 15.8 µM	–
CNC(=O)Oc1ccc2ncccc2c1	inactive	–
COc1cc(-n2c(=S)[nH]c3ccccc3c2=O)c(Cl)cc1Cl	inconclusive: 25.1 µM [activator, single point]	–
CC(C)(C)C(=O)N1Cc2cc(N3CCCCC3)ccc2-n2nncc2C1	inconclusive: 31.6 µM [activator, partial curve]	–
CN(CC1COc2ccccc2O1)c1nc(-c2cccnc2)nc2ccccc12 (configuration not stated)	active: 8.91 µM	–
COc1cccc(C(C)(O)c2nc(-c3cccc(F)c3)cs2)c1 (configuration not stated)	inconclusive: 35.5 µM [activator, partial curve]	–
Oc1ccc(Cl)cc1Cc1ccccc1	active: 14.1 µM	–
Cc1cc(Cl)ccc1OCC(=O)O	inconclusive: 7.94 µM [activator, partial curve, poor fit]	–
CN(C)C(=O)Oc1ccc(C(=O)c2ccccc2)cc1	inconclusive: 15.8 µM [activator, single point]	–

SMILES	Potency	growth rescue (activation)
COC(=O)C1=C(c2ccccc2OCc2ccccc2)C[C@@H]2CC[C@H]1N2C(=O)NCCOc1ccccc1	inconclusive: 12.6 µM [activator, partial curve]	–
BrCC1C[n+]2c(SCc3ccccc3)nc3sc4c(c3c2O1)CCCC4 (configuration not stated)	inconclusive: 14.1 µM [activator, partial curve]	–
Cc1cc(C=C(C#N)C#N)ccc1N1CCCC1	inconclusive: 1.12 µM [activator, partial curve]	–
Cn1c(O)c(Cc2ccc(OCc3ccccc3)cc2)c(=O)n(C)c1=O	inconclusive: 11.2 µM [activator, partial curve]	–
COc1ccc(CNC(=O)c2sc(=O)n(Cc3ccc(C)cc3)c2C)cc1OC	inconclusive: 35.5 µM [activator, single point]	–
COc1ccccc1CN1CCN(C(=O)COc2ccc3ccccc3c2)CC1	inactive	–
O=C(O)c1cccc2nc3ccccc3nc12	–	inconclusive: -68.7% [activator]
O=C(CSCc1ccccc1)Nc1ccc2c(c1)OCO2	inconclusive: 17.8 µM [activator, single point]	–
COc1ccc(-c2nnn(CC(=O)OC3CCCCC3)n2)cc1OC	inconclusive: 31.6 µM [activator, single point]	–
CC1(C)CN=C(Nc2nc3ccccc3s2)S1	inconclusive: 17.8 µM [activator, single point]	–
CCCC1(CC(C)C)C(=O)NC(=S)NC1=O	inactive	–
C[C@H](O)[C@H]1CC[C@H]2[C@@H]3CCC4=CC(=O)CC[C@]4(C)[C@H]3CC[C@]12C	inconclusive: 5.62 µM [activator, partial curve]	–
CC(=O)OCC12CC(OC(=O)CC(C)C)C(C)=CC1OC1C(O)C(OC(C)=O)C2(C)C12CO2 (configuration not stated)	active: 1.78 µM	–
Nc1ccc2cc(Br)ccc2c1	active: 35.5 µM	–
COC(=O)C1=C(c2ccc(-c3ccccc3)c(F)c2)C[C@@H]2CC[C@H]1N2C(=O)NCCc1ccccc1	inconclusive: 22.4 µM [activator, single point]	–
O=C(Oc1ccc([N+](=O)[O-])cc1)N1CCC(N2CCCCC2)CC1	inconclusive: 3.55 µM [activator, partial curve]	–
c1ccc2nc(N3CCNCC3)ccc2c1	inactive	–
COc1ccc(NC(=O)c2ccco2)cc1NC(=O)COc1cccc(C)c1C	inconclusive: 0.794 µM [activator, full curve, poor fit]	–
CC(C)C(=O)c1cn(Cc2ccccc2C#N)c2ccccc12	inconclusive: 35.5 µM [activator, single point]	–
CCOC(=O)[C@]12Cc3ccccc3[C@H]1N(Cc1ccccc1)C(=O)c1cc(F)c(F)cc12	inconclusive: 35.5 µM [activator, partial curve]	–
COc1ccc(-n2c(-c3ccc(C)cc3)nc3ccccc3c2=O)cc1	inconclusive: 22.4 µM [activator, single point]	–
O=c1c2ccccc2ncn1-c1ccc([N+](=O)[O-])c(C(F)(F)F)c1	inactive	–
CC/C(CC(c1ccccc1)c1c(O)c2ccccc2oc1=O)=N\NC(N)=S (configuration not stated)	inconclusive: 20 µM [activator, single point]	–

SMILES	Potency	growth rescue (activation)
C[C@]12CC[C@H](OS(=O)(=O)O)CC1=CC[C@@H]1[C@@H]2CC[C@]2(C)C(=O)CC[C@@H]12	inconclusive: 316 nM [activator, full curve, poor fit] and inconclusive: 28.2 µM [activator, partial curve, poor fit]	–
CCOc1ccc(N2C(=O)NC(=O)/C(=C\c3ccccc3[N+](=O)[O-])C2=O)cc1	inactive	–
CS(=O)(=O)c1ccc(C2=C(CNC(=O)c3ccncc3)[C@H]3CC[C@@H](C2)N3Cc2ccco2)cc1	inconclusive: 0.355 µM [activator, partial curve, poor fit]	–
C=CCN1C(=O)C2(C(C(=O)OCC)=C(N)Oc3ccccc32)C2=C1CCCC2=O (configuration not stated)	inconclusive: 7.08 µM [activator, partial curve]	–
Cc1cccc(Cn2cc(C=O)c3ccccc32)c1	active: 14.1 µM	–
Cc1c(C(=O)c2cccc3ccccc23)c2cccc3c2n1[C@H](CN1CCOCC1)CO3	active: 25.1 µM	–
O=C(Nc1ccc(Br)cc1C(=O)c1ccccc1)c1ccccc1	inactive	–
CCCCC[C@@H]1CCCCC[C@@H](O)C[C@@H](O)[C@H](O)/C=C/C(=O)O1	inactive	–
O=C(Nc1cccc(C(F)(F)F)c1)c1cccn(Cc2ccc3c(c2)OC(F)(F)O3)c1=O	inconclusive: 12.6 µM [activator, partial curve]	–
CCCNC(=O)N1[C@H]2CC[C@@H]1C(C(=O)OC)=C(c1ccc3ccccc3c1)C2	inconclusive: 35.5 µM [activator, single point]	–
COc1ccc(-c2ccc3c(c2)CN(C(=O)C(C)(C)C)Cc2cnnn2-3)cc1	active: 17.8 µM	–
CCCCCCCCN1C(=O)[C@H](CC(=O)NCCc2ccccc2OC)C[C@@]2(C(=O)OC)CCCCC=C12	inconclusive: 28.2 µM [activator, partial curve, poor fit]	–
O=P(Nc1cccc(F)c1)(Oc1ccccc1F)Oc1ccccc1F	inactive	–
Cc1cc([N+](=O)[O-])c2ccccc2[n+]1[O-]	–	inconclusive: -93.1% [activator]
CCOC(=O)[C@]12Cc3cc(OC)ccc3[C@H]1N(C)C(=O)c1cc(OC)ccc12	inconclusive: 35.5 µM [activator, partial curve]	–
CCOC(=O)C1=C(NC(=S)NC(=O)c2ccccc2)c2ccccc2CC12CCCC2	inconclusive: 17.8 µM [activator, partial curve]	–
CC(=O)N1CCN(c2ccc(OC[C@H]3CO[C@](Cn4ccnc4)(c4ccc(Cl)cc4Cl)O3)cc2)CC1	inconclusive: 3.55 µM [activator, single point]	–
CC(=O)[C@H]1CC[C@H]2[C@@H]3CCC4=CC(=O)CC[C@]4(C)[C@H]3CC[C@]12C	active: 35.5 µM	–
CN1C(=O)C(Cc2ccc(OCc3ccccc3)cc2)C(=O)N(C)C1=O	inconclusive: 17.8 µM [activator, partial curve]	–
Oc1c(Br)cc(Br)cc1Br	inconclusive: 12.6 µM [activator, partial curve]	–
Cc1ccc(N/N=C/C=C/c2ccco2)cc1	inconclusive: 4.47 µM [activator, full curve]	–
